Results taken from PubChem BioAssay AID488969 (Vanderbilt High Throughput Screening Facility, 2010).
The full ranking holds about 110,000 compounds; the median of “z-score” is about -0.1, and the highest 2% start at about 2. This is one part of the list. Calls of active or inactive are those of the source.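 The calls were made as follows: active = z-score in the third read window above 3 or below -3; inactive = the rest.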

These compounds were tested against Metabotropic glutamate receptor 8 (Rattus norvegicus) (UniProt P70579) (assay: rat mGluR8 modulators via GIRK flux, primary screen, cell-based, thallium flux, HTS (AID 488969)). Conditions: HEK293 rat mGluR8, GIRK (G protein-gated inwardly rectifying potassium channel) thallium flux, FluoZin2; at 10 µM; stronger effect = higher value; submaximal glutamate (EC20) added with thallium.
Sequence of UniProt P70579 (P70579 whole entry, looked up): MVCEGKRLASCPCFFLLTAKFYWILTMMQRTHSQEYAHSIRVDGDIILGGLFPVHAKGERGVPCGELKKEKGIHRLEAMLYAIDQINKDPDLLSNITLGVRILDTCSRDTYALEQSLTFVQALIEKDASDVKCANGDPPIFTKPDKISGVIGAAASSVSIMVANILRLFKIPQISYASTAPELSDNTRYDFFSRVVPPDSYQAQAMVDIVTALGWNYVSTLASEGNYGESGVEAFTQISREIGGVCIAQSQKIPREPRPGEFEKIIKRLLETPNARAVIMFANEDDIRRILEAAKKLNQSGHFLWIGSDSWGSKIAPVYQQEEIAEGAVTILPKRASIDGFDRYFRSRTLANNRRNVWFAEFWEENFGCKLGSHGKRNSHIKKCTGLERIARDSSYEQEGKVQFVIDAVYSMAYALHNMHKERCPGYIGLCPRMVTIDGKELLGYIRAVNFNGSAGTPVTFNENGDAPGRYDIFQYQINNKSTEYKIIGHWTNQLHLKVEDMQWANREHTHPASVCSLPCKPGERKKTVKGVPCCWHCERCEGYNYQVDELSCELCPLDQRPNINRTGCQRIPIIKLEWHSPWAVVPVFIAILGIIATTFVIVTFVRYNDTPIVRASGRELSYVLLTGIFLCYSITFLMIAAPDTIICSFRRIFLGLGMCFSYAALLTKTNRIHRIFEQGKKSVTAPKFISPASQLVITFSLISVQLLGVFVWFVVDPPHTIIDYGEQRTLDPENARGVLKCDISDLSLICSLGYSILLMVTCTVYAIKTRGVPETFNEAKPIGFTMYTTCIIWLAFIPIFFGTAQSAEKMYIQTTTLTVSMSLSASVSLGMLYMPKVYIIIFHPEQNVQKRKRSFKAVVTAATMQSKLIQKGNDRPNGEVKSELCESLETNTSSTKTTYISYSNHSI
`Cc1ccc2c(c1)sc1nc(=O)n(-c3cccc(Cl)c3)c(=O)n12` gave a z-score of -0.033. `CCOC(=O)/C=C1\NC(=O)C(C)S1` (stereo not given) showed a z-score of 0.527. For `C=CCNC(=O)CCCOc1cccc(C)c1`, the z-score was 0.388. In the case of `CCN(CC)S(=O)(=O)c1cccc(C(=O)OCC(=O)C23CC4CC(CC(C4)C2)C3)c1`, the z-score is reported as -0.152. `COc1ccc(-c2nnc3sc(C4CCCCC4)nn23)cc1OC` was tested, and the z-score was -2.24. `Cc1onc(-c2ccccc2)c1C(=O)N1CCC(C)CC1` showed a z-score of -0.358. Compound `CCOC(=O)c1c(C)nc2c(c1-c1ccccc1)C(=O)CC(C)(C)C2` has a z-score of -0.148. With `CN1CCN(C(=S)Nc2cccc(Cl)c2)CC1` the z-score was -0.182. With `CC(C)c1ccc(Nc2nnc(SC3CCOC3=O)s2)cc1` (stereo not given) the z-score was -0.374. In the case of `N#Cc1cnc2sc3ccccc3n2c1=N`, the z-score is reported as -0.456. Work on `CC(C)(C)c1ccc(S(=O)(=O)NCc2ccc(C(=O)N3CCCC3)cc2)cc1` yielded a z-score of -0.745. Work on `Cc1c(/C=N/NC(=O)C2(O)c3ccccc3-c3ccccc32)cnn1C` yielded a z-score of -0.299. Compound `O=C(Nc1ccc(S(=O)(=O)N2CCCC2)cc1)N1c2ccccc2Sc2ccccc21` has a z-score of 0.0176. `O=C(O)CCNS(=O)(=O)c1ccc2ccccc2c1` gave a z-score of -0.194. With `CCOC(=O)CNC(=O)CSc1nnc(COc2ccc(Cl)cc2)n1CC` the z-score was 1.3. `Cc1onc(-c2c(Cl)cccc2Cl)c1C(=O)NCC1CCCO1` (stereo not given) showed a z-score of -0.141. In the case of `COc1ccc(C(=O)N2CCC(C(=O)Nc3ccccc3OC)CC2)cc1`, the z-score is reported as -0.453. `COC(=O)C1=C(C(=O)OC)SC2(S1)C(C(=O)OC)=C(C(=O)OC)SC1=C2c2cc(C)ccc2NC1(C)C` gave a z-score of -0.0965. `Cc1ccc(S(=O)(=O)Cc2ccc(C(=O)NCc3cccs3)o2)cc1` showed a z-score of -0.101. `N#Cc1c(N)n(CCc2ccc(F)cc2)c2nc3ccccc3nc12` showed a z-score of -0.183. `COc1cc(C=O)ccc1Oc1nnnn1-c1ccc(C(N)=O)cc1` gave a z-score of -0.291. In the case of `COc1ccc(-c2nc(N)n(C(C)=O)n2)cc1`, the z-score is reported as 0.0652. Compound `COc1ccc(C2=NN(c3nc(-c4ccccc4)c(CC(=O)O)s3)C(c3ccco3)C2)cc1` (stereo not given) has a z-score of -0.389. `Cc1ccc(CNC(=O)CCCn2c(=O)c3ccccc3n(CC(=O)NCc3ccco3)c2=O)cc1` showed a z-score of -0.356. Work on `Clc1ccc(Cc2noc(Cc3ccccc3)n2)cc1Cl` yielded a z-score of -0.0172. `CSc1ccccc1C(=O)NCCc1ccc(S(=O)(=O)N2CCCCC2)cc1` was tested, and the z-score was -0.295. Compound `O=C(NCc1nnc(SCC(=O)N2CCCc3ccccc32)n1-c1ccccc1)c1cccc2ccccc12` has a z-score of -0.913. With `Cc1ccc(-c2nnn(CC(=O)N(c3ccccc3F)C(CC(C)C)C(=O)NCC3CCCO3)n2)cc1` (stereo not given) the z-score was -0.197. With `COc1ccc(N(C2CSC2)S(=O)(=O)c2ccccc2)cc1` the z-score was -0.377. In the case of `O=C(CSc1ccc2nnc(-c3ccncc3)n2n1)Nc1ccc2c(c1)OCO2`, the z-score is reported as -0.35. With `COc1ccccc1NC(=O)Cc1c(F)cccc1Cl` the z-score was -0.193. With `COc1ccc(C(=O)C(CCCCC(CN(C)C)C(=O)c2ccc(OC)cc2)CN(C)C)cc1` (stereo not given) the z-score was -0.494. `CCOC(=O)NC1(Nc2cccc(Cl)c2)Oc2ccccc2O1` gave a z-score of -0.0561. `O=C(CCCCl)NC1=NN(c2ccccc2)C(=O)C1` was tested, and the z-score was -2.01. `CCC1Oc2ccc(C)cc2N(CC(=O)N(Cc2cccnc2)Cc2ccc(C)o2)C1=O` (stereo not given) gave a z-score of -0.536. In the case of `CC1CC1C(=O)Nc1nc(-c2cccs2)c(-c2cccs2)s1` (stereo not given), the z-score is reported as -0.316. For `CCCCNC(=O)CS(=O)Cc1nc(-c2ccc(C)cc2)oc1C` (stereo not given), the z-score was -0.0553. `CN(C)S(=O)(=O)c1ccc(NC(=O)c2ccccn2)cc1` was tested, and the z-score was -0.247. `O=C(CCN1CCOCC1)c1ccccc1` showed a z-score of -0.0719. For `CCOC(=O)c1cccc(NC(=O)/C=C/c2ccc([N+](=O)[O-])cc2)c1`, the z-score was -0.23. For `OCCN(Cc1ccccc1)Cc1ccc(C(F)(F)F)cc1`, the z-score was -0.0102. Compound `CC(C)c1nc(SCC(=O)Nc2nc3c(s2)CCCC3)c2ccccc2n1` has a z-score of -0.486. `CCCOc1ccc(NC(=O)C2CC(=O)N3CCCN=C3S2)cc1` (stereo not given) showed a z-score of 0.626. `Cc1c(NC(=O)CSc2nc3ccccc3n2C)c(=O)n(-c2ccccc2)n1C` showed a z-score of 0.0394. `O=C(Cn1ccc([N+](=O)[O-])n1)N1CCCc2ccccc21` was tested, and the z-score was -0.0417. `CCOc1cc(C(=O)N/N=C/C(Br)=C/c2ccccc2)cc(OCC)c1OCC` showed a z-score of 0.209. For `O=C(CSc1nc2cc3c(cc2c(=O)n1CCC1=CCCCC1)OCO3)NCc1ccco1`, the z-score was 0.355. For `CN1CCN(C(=O)C2CCC(CNS(=O)(=O)c3cccc4cccnc34)CC2)CC1` (stereo not given), the z-score was -0.297. With `COC(=O)c1ccc(NC(=O)C(=O)N2CCN(C(=S)Nc3ccccc3OC)CC2)cc1` the z-score was -0.0921. Compound `CCNC(=O)N1C(CC(=O)OCC)C(=O)NC2CCCCC21` (stereo not given) has a z-score of 0.146. In the case of `O=C(c1cccc([N+](=O)[O-])c1)N1CCN(c2ccc(Cl)cc2)CC1`, the z-score is reported as -0.216. In the case of `CC(=O)Nc1ccc(NC(=O)C(F)(F)F)cc1`, the z-score is reported as 0.364. Work on `O=C(O)C1CCN(c2c([N+](=O)[O-])cc(C(F)(F)F)cc2[N+](=O)[O-])CC1` yielded a z-score of -0.189. In the case of `CC(Oc1ccc2ccccc2c1)C(=O)NNC(=S)NC(=O)c1ccco1` (stereo not given), the z-score is reported as active: 4.46. Compound `CCc1sc(N2C(=O)C3C4CCC(C4=C(C)C)C3C2=O)nc1-c1ccccc1` (stereo not given) has a z-score of -0.175.
